Test results taken from PubChem BioAssay (NCATS).
Inconclusive means that the source gave no clear call. Such entries were picked first, then a sample of the others. Where the call is inconclusive, the potency comes from a doubtful curve fit. Activity calls are given as the source filed them. The call rests on the fitted dose curve; in most records, active means well fitted activation curve with a large enough effect in the main read-out, with a control signal flat (not every such curve was filed as active); inconclusive means small, poorly fitted or top-dose-only effect, or effect the other way, or a change in a side signal; inactive means flat fitted curve, though single readings scatter.

Molecular target: 3',5'-cyclic-AMP phosphodiesterase 4B (Homo sapiens) (UniProt Q07343)
Assay: qHTS Assay for Inhibitors of PDE-IV (AID 607); on activation (PDE inhibition): % of control where 0% means no effect
Details: HEK293 ACTOne CNG channel cells, membrane potential fluorescence; activation (PDE inhibition): at 22.9 µM (top of the series)
Excerpt: NIH Chemical Genomics Center [NCGC]
NIH Molecular Libraries Screening Centers Network [MLSCN]
The cyclic nucleotide phosphodiesterases (PDEs) are proteins that catalyze hydrolysis of 3', 5'-cyclic nucleotides, such as cyclic adenosine monophosphate (cAMP) and cyclic guanosine monophosphate (cGMP), to their corresponding 5'-nucleotide monophosphates. These enzymes play an important role in controlling cellular concentrations of cyclic nucleotides and have a central role in a variety of intracellular signaling events. cAMP PDEs are emerging as a promising class of drug targets in asthma and cardiovascular disease therapeutic areas.
There are no commercially available cell-based screening assays for PDE inhibitors: currently biochemical assays are done using pure substrates (cAMP or cGMP) and purified recombinant PDE enzymes. As with other biochemical screens on intracellular targets, false positives and false negatives may result from issues involving cell membrane permeability, cellular metabolism, and the like.
Here we report the development of a cell-based screening assay for cAMP phosphodiesterase (PDE) inhibitors. The assay is based on the BD ACTOne# technology (BD Biosciences) which utilizes a modified cyclic nucleotide-gated channel (CNG) to monitor intracellular cAMP changes in live cells. The CNG channel is localized on the plasma membrane, and opens when the intracellular cAMP level increases, resulting in ion flux and cell membrane depolarization. The influx of cations through the CNG channel can be quantified using membrane potential (MP) dyes. We modified the BD ACTOne technology to allow the detection of PDE inhibitors, and performed an inhibitor screen for PDE-IV, which is expressed endogenously in HEK293 cells. We optimized this assay in homogeneous 1536-well plate assay format for high throughput screening.
NCGC Assay Protocol Summary:
The medium contained 10% FBS (Invitrogen), 2 mM L-glutamine, and 250 ug/ml G418 (Cellgro) and 1 ug/ml puromycin (Clontech). ACTOneTM parental cells (BD Biosciences) were maintained in the same medium without puromycin.
The activity of the CNG channel was measured by BD ACTOneTM membrane potential dye kit (BD Biosciences). Forskolin, a positive control for cAMP activation and RO 20-1724, a PDE inhibitor, were both purchased from Sigma and solublized in DMSO.
Sequence,Parameter,Value,Description
1,Reagent,3 uL,1000 cells/well 1536 TC treated Black plate
3,Compound,0.5 uL,Kalypsys dispense RO 20-1724 100 uM final [A]
4,Reagent,3 uL,BD membrane potential dye
6,Compound,23 nL,Final concentration was 0.7nM to 22.9uM
8,Detector,EX 535 / EM 590 [B],Envision
Footnotes: [A] The stock 2 mM RO 20-1724 PDE inhibitor was made in 10 % DMSO. Parental cell line received 10 uM forskolin + 100 uM RO. [B] Envsion settings: Bottom Excitation 535/20 nm top emission 590/20, gain of 150 and 5 flashes per well.
Keywords: PDE, PDE-IV, cytotoxicity, flourescence, MLSMR, MLSCN, NIH Roadmap, qHTS, NCGC
Potency means the concentration at half of the fitted maximal effect; tags describe the fitted curve by direction and shape.

Sequence of UniProt Q07343 (Q07343 whole entry, looked up): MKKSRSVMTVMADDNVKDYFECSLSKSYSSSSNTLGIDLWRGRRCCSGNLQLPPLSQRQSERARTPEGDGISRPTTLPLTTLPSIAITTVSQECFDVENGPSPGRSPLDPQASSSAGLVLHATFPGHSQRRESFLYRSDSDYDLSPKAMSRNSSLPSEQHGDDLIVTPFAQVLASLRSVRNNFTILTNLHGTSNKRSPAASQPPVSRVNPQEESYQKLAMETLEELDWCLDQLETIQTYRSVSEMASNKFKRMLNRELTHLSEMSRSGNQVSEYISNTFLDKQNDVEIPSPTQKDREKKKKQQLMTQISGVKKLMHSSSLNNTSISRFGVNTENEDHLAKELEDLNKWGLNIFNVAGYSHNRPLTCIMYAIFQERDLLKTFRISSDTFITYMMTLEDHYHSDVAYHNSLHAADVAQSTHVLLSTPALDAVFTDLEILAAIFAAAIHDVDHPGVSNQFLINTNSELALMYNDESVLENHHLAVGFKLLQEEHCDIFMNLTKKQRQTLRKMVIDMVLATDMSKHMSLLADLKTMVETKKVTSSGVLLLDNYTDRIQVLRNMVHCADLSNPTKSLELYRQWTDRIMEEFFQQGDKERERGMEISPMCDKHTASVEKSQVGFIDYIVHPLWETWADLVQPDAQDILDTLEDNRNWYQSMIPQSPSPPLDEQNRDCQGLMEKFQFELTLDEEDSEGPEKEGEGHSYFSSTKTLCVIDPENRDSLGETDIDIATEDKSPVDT

Row | Compound | Potency | activation (PDE inhibition)
1 | COc1ccc(-c2nc3cnc(N4CCNCC4)nc3n(Cc3ccc(F)cc3)c2=O)cc1 | inconclusive: 2 µM [activator, single point] | 
2 | O=c1c(-c2ccc(Cl)cc2)nc2cnc(N3CCOCC3)nc2n1Cc1ccc(F)cc1 | inconclusive: 1.26 µM [activator, single point] | 
3 | Clc1ccc2c(NCCNC3CCCCC3)ccnc2c1 |  | inactive: 25.9%
4 | COc1ccccc1CCn1c(=O)c(CCc2ccccc2)nc2cncnc21 | inconclusive: 10 µM [activator, partial curve] | 
5 | CC1(C)S[C@@H]2[C@H](NC(=O)C3(N)CCCCC3)C(=O)N2[C@@H]1C(=O)O | inconclusive: 1.26 µM [falling, single point] | 
6 | CCNc1ncc2nc(-c3cn(C)c4ccccc34)c(=O)n(-c3ccc(OC)cc3)c2n1 | inconclusive: 6.31 µM [activator, partial curve] | 
7 | N#CCCn1c(=O)cnc2cnc(Nc3ccccc3)nc21 | inconclusive: 12.6 µM [activator, single point] | 
8 | CNCC[C@H](Oc1ccccc1C)c1ccccc1 | inconclusive: 12.6 µM [activator, partial curve] | 
9 | C[C@@]12C(=O)OC(=O)[C@@]1(C)[C@H]1CC[C@@H]2O1 | inconclusive: 12 µM [rising, partial curve, poor fit] | 
10 | COc1ccc(CNc2cc(-c3cccc(C#N)c3)ncn2)c(OC)c1 | inconclusive: 0.794 µM [inhibitor, full curve, poor fit] | 
11 | CN1CCN(c2ncc3nc(-c4ccc(Cl)cc4)c(=O)n(Cc4cccs4)c3n2)CC1 |  | inactive: -10.5%
12 | CCC/C=C(\CCC)C(NP(=O)(c1ccccc1)c1ccccc1)c1ccc(C(F)(F)F)cc1 (stereo not given) | inconclusive: 7.94 µM [rising, partial curve] | 
13 | CN1[C@@H](c2ccccc2)CC(=NO)C[C@H]1c1ccccc1 |  | inactive: 8.57%
14 | Cc1nc2cnc(N3CCOCC3)nc2n(CCC#N)c1=O | inconclusive: 2 µM [activator, partial curve] | 
15 | Nc1ncnc2c([C@@H]3O[C@@H](CO)[C@H](O)[C@@H]3O)nsc12 |  | inactive: -15.9%
16 | COc1ccccc1-c1nc(N2CCOCC2)c2ccccc2n1 | inconclusive: 12.6 µM [activator, single point] | 
17 | CS(=O)(=O)Nc1cccc(-c2nc(-n3ccnc3)c3ccccc3n2)c1 | inconclusive: 6.31 µM [activator, partial curve] | 
18 | CSc1cccc(NC(=O)OC2CCCCCCCCCCC2)c1 |  | inactive: 12.7%
19 | C/C=C\C[C@@H](C)[C@@H](O)[C@H]1C(=O)N[C@@H](CC)C(=O)N(C)CC(=O)N(C)[C@@H](CC(C)C)C(=O)N[C@@H](C(C)C)C(=O)N(C)[C@@H](CC(C)C)C(=O)N[C@@H](C)C(=O)N[C@H](C)C(=O)N(C)[C@@H](CC(C)C)C(=O)N(C)[C@@H](CC(C)C)C(=O)N(C)[C@@H](C(C)C)C(=O)N1C | inconclusive: 19 µM [inhibitor, single point] | 
20 | COCCNc1nc(-c2ccoc2)nc2ccccc12 | inconclusive: 10 µM [activator, partial curve] | 

Row | Compound | Potency | activation (PDE inhibition)
21 | COc1ccc2[nH]cc(CCNc3cc(-c4ccccc4Cl)ncn3)c2c1 |  | inactive: 0.674%
22 | COc1cc2c(c(OC)c1OC)-c1ccc(OC)c(=O)cc1[C@H](NC(C)=O)CC2 | inactive | 
23 | CC(=O)NCCNc1nc(-c2ccccc2C)nc2ccccc12 | inconclusive: 6.31 µM [activator, partial curve] | 
24 | CCNc1ncc2nc(-c3cc(F)cc(F)c3)c(=O)n(Cc3ccc(F)cc3)c2n1 |  | inactive: 2.33%
25 | CCCCC#Cc1nc(N)c2ncn([C@@H]3O[C@@H](C(=O)NCC)[C@H](O)[C@@H]3O)c2n1 |  | inactive: 26.5%
26 | Clc1ccccc1-c1nc(NCc2cccs2)c2ccccc2n1 | inconclusive: 10 µM [activator, partial curve] | 
27 | CN(C)c1ccc(-c2cncnc2N(C)Cc2ccco2)cc1 | inconclusive: 12.6 µM [activator, partial curve] | 
28 | COC(=O)[C@@H]1[C@H]2C[C@H]3c4[nH]c5cc(OC)ccc5c4CCN3C[C@@H]2C[C@@H](OC(=O)c2cc(OC)c(OC)c(OC)c2)[C@@H]1OC | inconclusive: 15.1 µM [inhibitor, single point] | 
29 | CCN(CC)CCC[C@H](C)Nc1c2ccc(Cl)cc2nc2ccc(OC)cc12 | inconclusive: 12.6 µM [inhibitor, partial curve] | 
30 | NC[C@@H]1O[C@H](O[C@H]2[C@H](O)[C@H](O[C@@H]3O[C@H](CO)[C@@H](O)[C@H](N)[C@@H]3O)[C@@H](N)C[C@H]2N)[C@@H](O)[C@H](O)[C@@H]1O |  | inactive: -6.3%
31 | CN(Cc1ccco1)c1ncnc2ccc(-c3cccnc3)cc12 | inconclusive: 12.6 µM [activator, single point] | 
32 | Fc1ccc(Nc2nc(-c3ccoc3)nc3ccccc23)cc1 | inconclusive: 12.6 µM [activator, partial curve] | 
33 | O=C(c1cccc(F)c1)N1CCC2(CCCN(c3ccccc3)C2)CC1 |  | inactive: 18.8%
34 | COc1ccccc1-c1cc(NCc2cccc(C)c2)ncn1 | inconclusive: 7.94 µM [activator, single point] | 
35 | COc1ccccc1CCn1c(=O)c(-c2ccc(Cl)cc2)nc2cncnc21 |  | inactive: 26.9%
36 | C[C@@H](/C=C\c1cccc(Oc2ccc(F)cc2)c1)N(O)C(N)=O | inconclusive: 3.01 µM [activator, single point] | 
37 | C[C@@H]1[C@H](C)CC[C@@]2(C(=O)O[C@H]3O[C@@H](CO[C@H]4O[C@@H](CO)[C@@H](O[C@H]5O[C@@H](C)[C@@H](O)[C@@H](O)[C@@H]5O)[C@@H](O)[C@@H]4O)[C@@H](O)[C@@H](O)[C@@H]3O)CC[C@]3(C)C(=CC[C@H]4[C@@]5(C)C[C@@H](O)[C@@H](O)[C@](C)(CO)[C@@H]5CC[C@@]43C)[C@@H]12 |  | inactive: 8.96%
38 | CC[C@@]12CCCN3CCc4c(n(c5ccccc45)[C@](O)(C(=O)OC)C1)[C@H]32 | inactive | 
39 | c1ccc(CNc2ncnc3ccc(-c4ccc5c(c4)OCO5)cc23)cc1 | inconclusive: 12.6 µM [rising, partial curve] | 
40 | Cc1ccc(C)c(/C(=N\N=C(N)N)C2CC2)c1 |  | inactive: -4.98%
